The whole screen tested about 310,000 compounds, of which about 14,000 (4.5%) showed an effect of 50% or more. Effects have a minus sign here. The list shows a part of the results.
These compounds were tested against human ether-à-go-go-related gene (hERG) potassium channel (human, UniProt Q12809) (assay: primary screen, population patch clamp on CHO cells stably expressing hERG).
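Further: peak tail current of the secondary pulse compared with the same well before compound.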

Sequence of human ether-à-go-go-related gene (hERG) potassium channel (Q12809 whole entry, looked up): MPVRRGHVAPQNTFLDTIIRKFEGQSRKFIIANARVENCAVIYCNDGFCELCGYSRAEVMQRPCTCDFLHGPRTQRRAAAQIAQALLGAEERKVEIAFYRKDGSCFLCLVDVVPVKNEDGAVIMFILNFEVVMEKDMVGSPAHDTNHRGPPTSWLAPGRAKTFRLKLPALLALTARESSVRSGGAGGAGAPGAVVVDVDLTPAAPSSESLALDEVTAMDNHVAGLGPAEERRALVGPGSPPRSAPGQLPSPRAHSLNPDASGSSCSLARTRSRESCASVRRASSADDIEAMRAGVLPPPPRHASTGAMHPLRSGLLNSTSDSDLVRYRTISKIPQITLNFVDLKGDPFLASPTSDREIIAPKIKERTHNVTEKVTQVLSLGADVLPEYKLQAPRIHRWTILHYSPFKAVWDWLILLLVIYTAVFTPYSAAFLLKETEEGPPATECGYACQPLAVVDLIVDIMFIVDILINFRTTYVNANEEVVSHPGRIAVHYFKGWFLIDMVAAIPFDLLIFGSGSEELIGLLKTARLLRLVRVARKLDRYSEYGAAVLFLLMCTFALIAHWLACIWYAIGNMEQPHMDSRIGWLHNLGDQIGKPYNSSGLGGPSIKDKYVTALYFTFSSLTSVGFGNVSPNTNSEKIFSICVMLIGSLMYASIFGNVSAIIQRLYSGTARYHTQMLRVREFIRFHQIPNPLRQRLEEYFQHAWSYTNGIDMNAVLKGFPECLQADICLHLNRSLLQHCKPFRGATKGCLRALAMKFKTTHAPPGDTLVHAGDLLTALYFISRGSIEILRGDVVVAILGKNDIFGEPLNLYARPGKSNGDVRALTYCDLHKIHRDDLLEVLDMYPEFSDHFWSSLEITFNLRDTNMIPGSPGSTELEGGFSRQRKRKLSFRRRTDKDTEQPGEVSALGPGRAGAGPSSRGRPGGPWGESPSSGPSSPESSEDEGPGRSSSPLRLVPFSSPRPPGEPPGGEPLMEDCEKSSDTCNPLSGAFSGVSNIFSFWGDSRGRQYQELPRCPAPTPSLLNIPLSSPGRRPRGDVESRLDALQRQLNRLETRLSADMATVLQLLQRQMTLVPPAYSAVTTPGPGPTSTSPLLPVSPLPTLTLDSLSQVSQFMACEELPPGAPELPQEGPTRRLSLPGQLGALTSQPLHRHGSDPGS

Structure (SMILES)	hERG current change (%, negative = inhibition) at 10uM [%]
C/C(CC(=O)Nc1ccc(N(C)C)cc1)=N\NC(=O)c1cnccn1	20
CCOC(=O)c1c(-c2ccccc2)nc2c(C)cccn12	-12.5
COc1ccc(-c2csc(NC(=O)CN3C(=O)C4CC=CCC4C3=O)n2)cc1OC (stereo not shown)	10.5
CCOc1ccc(S(=O)(=O)N(C)C)cc1-c1nc2c(C(C)(C)C)nn(C)c2c(=O)[nH]1	16
COC(=O)c1ccc(-c2sc3nc(N4CCOCC4)c4c(c3c2N)CCCC4)o1	20.4
CCC(C)(C)C(=O)Nc1nnc(CCc2ccccc2)s1	-41.1
Cn1cccc1C(=O)OCC(=O)N1c2ccccc2NC(=O)C1(C)C	7.42
CCOc1ccc(CCNC(=O)Cc2ccc(NC3=NC4CS(=O)(=O)CC4S3)cc2)cc1 (stereo not shown)	24.9
CCOc1ccc(-n2cc(C(=O)Nc3cccc(OC)c3)c3cc(OC)c(OC)cc3c2=O)cc1	3.33
COc1cccc(NC(=S)NCCc2ccccn2)c1	7.98
Cc1cccc(N2CCN(C(=O)CCCSc3nc4ccccc4[nH]3)CC2)c1C	-17.4
CCCCNC(=O)N(O)C1N(/N=C/c2ccco2)C(=S)SC1(C)C (stereo not shown)	10.3
O=C(c1cc2ncc(Br)cn2n1)N1CCN(C(=O)c2ccco2)CC1	-12.9
O=c1cc(Cc2nnc(SCc3ccccc3)n2-c2ccc(Cl)cc2)[nH]c(=O)[nH]1	0.593
Cc1nc(Nc2ccc(S(N)(=O)=O)cc2)oc1C	3.37
CC(C)C(OC(=O)c1ccco1)C(=O)NC1CCCCC1 (stereo not shown)	-3.32
COc1ccc(NS(=O)(=O)c2cccc(NC(=O)CCC(=O)c3cccs3)c2)cc1	-47.3
CCCC(=O)NC(c1ccccc1)c1c(O)ccc2ccccc12 (stereo not shown)	13.8
Cc1ccc(NC(=O)C2CCN(c3cnccn3)CC2)cc1C	38.3
O=C(NCc1ccc(C(F)(F)F)cc1)c1ccc2c(c1)S(=O)(=O)c1ccccc1C2=O	-4.03
CNC(=S)N1N=C(c2ccc(C)cc2)CC1c1ccc(Cl)cc1 (stereo not shown)	-0.424
O=C(NCCNC1CCC(c2ccccc2)CC1)c1cccs1 (stereo not shown)	-35.2

Structure (SMILES)	hERG current change (%, negative = inhibition) at 10uM [%]
CCc1nc(N2CCCC(C)C2)c2oc3ccccc3c2n1.Cl (stereo not shown)	6.78
CCOc1ccc(C(=O)C2CCN(CC(=O)Nc3nccs3)CC2)cc1	-68.3
COc1ccc(-c2nc(N)n(C(=O)c3ccco3)n2)cc1	1.08
Cn1c(CCc2ccc(N)cc2)nc2ccccc21	-8.55
O=C(Nc1ccccc1)c1ccc(N2CCN(c3ccccc3)CC2)c(S(=O)(=O)N2CCOCC2)c1	-9.82
COc1ccccc1NC(=O)C/C(C)=N/NC(=O)COc1c(Br)cc(Br)cc1OC	-22.2
Cc1ccccc1CN1CCN(C(C)C(=O)NCc2ccccc2)CC1 (stereo not shown)	-13.6
Cc1cc(O)c(N)c(C)c1Cl.Cl	-4.7
Cc1ccc(C(OCC(O)CNC(CO)C(O)c2ccc([N+](=O)[O-])cc2)c2ccccc2)cc1 (stereo not shown)	-22.4
COc1cccc(N(C(=O)Cn2nnc(-c3ccc(C)o3)n2)C(C(=O)NC(C)(C)C)c2cccs2)c1 (stereo not shown)	-1.02
C/C(=N\NC(=O)c1ccccc1C)c1cccc([N+](=O)[O-])c1	3
O=C(NCc1ccco1)C1Cc2ccccc2CN1C(=O)c1ccco1 (stereo not shown)	-6.44
O=C(CCCl)N1CCN(c2nc(-c3ccccc3)cs2)CC1	-6.46
Cc1nc2ccsc2c(=O)n1-c1ccc(Cl)cc1	4.99
CN(CC(=O)NCc1ccco1)S(=O)(=O)c1ccc2c(c1)n(C)c(=O)c(=O)n2C	0.277
CC(=O)c1ccc(S(=O)(=O)N2CCCC2)cc1	0.365
CCS(=O)(=O)N1CCN(C2Cc3ccccc3C2)CC1.O=C(O)C(=O)O	3.3
O=C(NCCCN1CCCC1=O)c1cccc(S(=O)(=O)N2CCN(c3ccccc3)CC2)c1	-33.3
COc1cc2c(cc1OC)-c1cc(NC3CCCC3)nc(=O)n1CC2	5.71
O=C(Cc1ncc(C(F)(F)F)cc1Cl)N1CCN(c2ccc(F)cc2)CC1	-41.3
CC(NCc1ccc(S(N)(=O)=O)cc1)C(=O)Nc1cccc(Cl)c1 (stereo not shown)	-8.15

From PMC4336329 (PLoS ONE, 2015)
